Several values for one entry are separate records, joined by “and”; a condition that tells them apart may be missing. Identical values can stand only once. Screen size: about 420,000 compounds; about 50,000 (12%) were called active. Inconclusive results, whose numbers are uncertain, are shown with a selection of clear calls. The call rests on the fitted dose curve; in most records, active means well fitted inhibition curve with a large enough effect; inconclusive means small, poorly fitted or top-dose-only effect; inactive means flat fitted curve, though single readings scatter. A potency beside an inconclusive call is a rough fit, not a confirmed value.
Test: qHTS for Inhibitors of human tyrosyl-DNA phosphodiesterase 1 (TDP1): qHTS in cells in presence of CPT; further: nearly all actives have a fitted effect of over 55% in size
Details: chicken DT40 Tdp1-/-;hTDP1 cells + 20 nM CPT, ATP luminescence, 48 h; activity change, negative = growth inhibition: at 46.2 µM (top of the series) unless noted
Description: Human tyrosyl-DNA phosphodiesterase 1 (TDP1) is a novel repair gene, and we propose to use it as a new target for anticancer drug development. TDP1 is not an essential protein, but under treatment with topoisomerase I poison (camptothecin: CPT), TDP1 works as a critical factor for cell survival. To directly identify novel TDP1 inhibitors active in a cellular environment, we have knocked-out the Tdp1 gene in chicken DT40 cells (Tdp1-/-) and generated a complemented counterpart cells that contains a stable transfection of the human TDP1 gene (Tdp1-/-;hTDP1 cells). For the primary screen, Tdp1-/-;hTDP1 cells will be exposed to small molecules in the presence or absence of CPT, and their growth kinetics will be evaluated after 48 hours by measuring ATP activity. […] The hit compounds will then be evaluated in the presence or absence of CPT using Tdp1-/- cells. […] In tertiary assays, biochemical gel-based assays will be used to assess whether the hit compounds specifically target TDP1. To this end, we have screened this cell line against the MLSMR in two primary screens. In one screen we add CPT and in the other we screen in the absence of CPT; this AID represents the screen where CPT was present. NIH Chemical Genomics Center [NCGC] NIH Molecular Libraries Probe Centers Network [MLPCN] MLPCN Grant: MH095538 Assay Submitter (PI): Yves Pommier, NCI
DT40-hTDP1 cells with 20 nM Camptothecin (add 20 microL of 1 mM CPT stock in 1 L of cell culture medium) were dispensed at 400 cells/5microL/well in tissue culture treated 1536-well white wall/solid bottom assay plates (Greiner Bio-One North America, NC, U.S.A.) using a Multidrop Combi 8 channel dispenser (Thermo Fisher, Waltham, MA, USA). 23 nL compounds and controls were transferred using the pin tool (Kalypsys, San Diego, CA, USA) to the assay plates. The assay plates were then incubated at 37 masculineC for a minimum 48 hr. Three microL of Cell Titer Glo solution was added to the plates and incubated at RT in dark for 30 min. Luminescence was read using ViewLux (Perkin Elmer) with 1 sec exposure slow speed, high gain and 2x binning.
In the case of `FC(F)(F)c1nc(N2CCN(c3ccccc3)CC2)nc2c1CCCCC2`, the Potency is reported as inconclusive: 20.6 µM [inhibitor, single point].
For `CCN(CC)CC(O)c1ccc(C2CCCC2)cc1` (stereo unspecified), the Potency was inconclusive: 29.1 µM [inhibitor, single point].
In the case of `CC1CN=C(NCc2ccc(F)cc2)S1` (stereo unspecified), the Potency is reported as “inactive”.
For `CC(C)CCCC(C)C1CCC2C3CC(O)[C@@]4(O)CC(O)CC[C@@]4(C)C3CC[C@@]12C` (stereo partly specified), the Potency was inconclusive: 25.9 µM [inhibitor, single point].
For `O=C(Nc1ccon1)c1cccn(Cc2cccc(Cl)c2)c1=O`, the Potency was “inactive”.
In the case of `CCOC(=O)C(O)(c1ccc(NC(=S)NC(=O)c2ccc(Cl)cc2Cl)c(C)c1)C(F)(F)F` (stereo unspecified), the Potency is reported as inconclusive: 16.4 µM [inhibitor, single point].
With `C[C@H]1CCCC=CC2C[C@H](O)C[C@@H]2[C@H](O)C=CC(=O)O1` (stereo partly specified) the Potency was active: 0.0282 µM.
With `C[C@]12CCC3=C4CCC(=O)C=C4CC[C@H]3C1CC[C@@H]2O` (stereo partly specified) the Potency was “inactive”.
For `CCCCCn1c(=O)c(C(=O)Nc2ccccc2N)c(O)c2ccccc21`, the Potency was inconclusive: 29.1 µM [inhibitor, single point].
With `CCCNC(=O)N1[C@H]2CC[C@@H]1C(C(=O)OC)=C(c1ccc(F)cc1F)C2` the Potency was inconclusive: 29.1 µM [inhibitor, single point].
With `CCC(C)C(=O)OC1C[C@@]2(C)C(c3ccoc3)OC(=O)CC23OC2(C)OC34C(OC(=O)C(C)C)[C@]3(O)C(OC(=O)C5(C)OC5C)[C@]5(C)CC3(O)[C@](C)(C5CC(=O)OC)C14O2` (stereo partly specified) the Potency was inconclusive: 23.1 µM [inhibitor, single point].
For `Cc1ccc(NC(=O)COc2ccc(-c3nn(C)c(=O)c4ccccc34)cc2)cc1`, the Potency was inconclusive: 23.1 µM [inhibitor, single point].
In the case of `CN1[C@@H]2CC[C@H]1CC(OC(c1ccc(F)cc1)c1ccc(F)cc1)C2` (stereo partly specified), the Potency is reported as active: 6.68 µM.
For `COc1ccc(CCNC(=O)c2ccc3c(c2)N=C(C)c2cc(C)ccc2S3)cc1OC`, the Potency was inconclusive: 23.1 µM [inhibitor, single point].
With `CCN1CCN(c2ccc(N)cc2)CC1` the Potency was inconclusive: 29.1 µM [inhibitor, single point].
With `Nc1ccc(-c2ccc(N)cc2)cc1` the activity change, negative = growth inhibition was inconclusive: -30.7% [inhibitor].
For `Cc1ccccc1N1CCN(C2CCCN(C(=O)Cc3c(C)noc3C)C2)CC1` (stereo unspecified), the Potency was “inactive”.
With `Cc1cc(C)cc(-n2c(SCC(=O)NCc3ccc(F)cc3)nc3c([nH]c4ccccc43)c2=O)c1` the Potency was inconclusive: 18.4 µM [inhibitor, single point].
In the case of `C=CC1CN2CCC1CC2C(O)c1ccnc2ccccc12` (stereo unspecified), the Potency is reported as inconclusive: 29.1 µM [inhibitor, single point] and inconclusive: 20.6 µM [inhibitor, single point].
For `Cc1ccsc1C(=O)C1CCCN(Cc2cccn2-c2ccccn2)C1` (stereo unspecified), the Potency was active: 20.6 µM.
In the case of `CN(C)CCOC(=O)c1cn(Cc2ccccc2)c2ccccc12`, the Potency is reported as inconclusive: 16.4 µM [inhibitor, single point].
In the case of `CCN1C(=O)CC(=O)N(CC)C1=S`, the Potency is reported as “inactive”.
For `N=c1c[n+](CC23CC4CC(CC(C4)C2)C3)[n-]o1`, the Potency was “inactive”.
In the case of `C=CCN1C(=O)/C(=C/c2cccs2)C(=O)NC1=S`, the Potency is reported as active: 16.4 µM.
For `Cc1cc(C)c(Cn2c3ccccc3c3cnn(CC(=O)NCc4ccc(Cl)cc4)c(=O)c32)c(C)c1`, the Potency was inconclusive: 23.1 µM [inhibitor, single point].
In the case of `CCN1C(=O)NC(=O)C2(CCCC2)C1=O`, the Potency is reported as “inactive”.
For `CCCCC1(CCC)C(=O)NC(=S)NC1=O`, the Potency was “inactive”.
With `O=C(/C=C/c1ccc2c(c1)OCO2)c1c(O)n(CCc2ccccc2)c(=O)[nH]c1=O` the Potency was inconclusive: 18.4 µM [inhibitor, single point].
In the case of `CC(Cc1ccccc1)NC(=O)/C=C/C(=O)O` (stereo unspecified), the Potency is reported as “inactive”.
For `S=C(SSC(=S)N1CCCCC1)N1CCCCC1`, the Potency was active: 0.75 µM.
With `c1ccc(CN2CCN(Cc3ccc4ccccc4c3)CC2)cc1` the Potency was active: 18.4 µM.
For `CON(C)C(=O)Nc1ccc(Cl)cc1`, the Potency was inconclusive: 16.4 µM [inhibitor, single point].
With `O=C(CCl)NCC1CCCO1` (stereo unspecified) the Potency was “inactive”.
In the case of `COc1ccc(C(=O)C2CCCN(C3CSCCSC3)C2)c(C)c1` (stereo unspecified), the Potency is reported as inconclusive: 23.1 µM [inhibitor, single point].
For `COc1ccc(CCNC(=O)C(=O)NCC2OCCN2S(=O)(=O)c2ccc(Cl)cc2)cc1` (stereo unspecified), the Potency was inconclusive: 29.1 µM [inhibitor, single point].
For `Fc1ccc(CCNCc2ccccc2Cl)cc1`, the Potency was “inactive”.
With `CC1CCCC(C)N1/N=C/c1c[nH]c2ccc(Br)cc12` (stereo unspecified) the Potency was inconclusive: 29.1 µM [inhibitor, single point].
For `COc1ccc(C(O)(c2ccccc2)c2ccncc2)cc1` (stereo unspecified), the activity change, negative = growth inhibition was inconclusive: -30.1% [inhibitor].
For `CN(Cc1cccc(-c2ccncc2)c1)C(=O)Oc1ccc([N+](=O)[O-])cc1`, the Potency was active: 20.6 µM.
With `CCOc1ccc(N2C(=O)/C(=C\c3cccs3)C(=O)NC2=S)cc1` the Potency was inconclusive: 18.4 µM [inhibitor, single point].
With `CC1CCCN(CC(=O)N2CCCc3ccccc32)C1` (stereo unspecified) the Potency was “inactive”.
For `CC(C)c1cccc(C(C)C)c1OCCn1ccnc1`, the Potency was inconclusive: 16.4 µM [inhibitor, single point].
In the case of `CCOP(=O)(NC(C)C)Oc1ccc(SC)c(C)c1` (stereo unspecified), the Potency is reported as active: 21.7 µM.
With `CCCCP(=O)(O)c1ccccc1` the Potency was “inactive”.
In the case of `Cn1cc(C(=O)OCC(=O)NC2(C#N)CCCCC2)c2ccccc21`, the Potency is reported as “inactive”.
In the case of `O=c1[nH]c(O)c(C=Nc2cc(F)cc(F)c2)c(=O)[nH]1`, the Potency is reported as “inactive”.
In the case of `COc1ccc(CCC(C)NCCc2ccccc2)cc1` (stereo unspecified), the Potency is reported as inconclusive: 18.4 µM [inhibitor, single point].
In the case of `N/C(=N\N=C/c1ccc(-c2ccc(O)c(C(=O)O)c2)o1)N[N+](=O)[O-]`, the Potency is reported as inconclusive: 5.01 µM [inhibitor, full curve, poor fit].
In the case of `C=CC(C)C(C(=O)c1ccccc1)N(C)C` (stereo unspecified), the Potency is reported as “inactive”.
For `COC(=O)C1=C(c2cccc(OCc3ccccc3)c2)C[C@@H]2CC[C@H]1N2C(=O)NCc1cccc(F)c1`, the Potency was inconclusive: 29.1 µM [inhibitor, single point].
In the case of `CCCOP(=O)(OCCC)C(Nc1ccc(C(C)C)cc1)c1ccc([N+](=O)[O-])cc1` (stereo unspecified), the Potency is reported as inconclusive: 29.1 µM [inhibitor, single point].
For `COC(=O)c1c(C)[nH]c(C(=O)C(Cc2ccccc2)N(C)C)c1C` (stereo unspecified), the Potency was inconclusive: 23.1 µM [inhibitor, partial curve].
In the case of `COc1ccccc1C1CC2CCC(C1OC(C)=O)N2Cc1ccccc1` (stereo unspecified), the Potency is reported as inconclusive: 25.9 µM [inhibitor, single point].
For `COc1cc(/C=C2\C(=O)NC(=O)N(CCc3ccc(F)cc3)C2=O)ccc1O`, the Potency was “inactive”.
With `Cc1ccc(-n2nc(C)c3c2NC(=O)CSC3c2ccc3c(c2)OCO3)cc1` (stereo unspecified) the Potency was “inactive”.
With `COC(=O)C1=C(c2cccc(OCc3ccccc3)c2)C[C@@H]2CC[C@H]1N2C(=O)NCc1ccc(OC)cc1` the Potency was active: 11.6 µM.
In the case of `CCCCCCCCCC[N+](C)(C)CCCCCCCCCC`, the Potency is reported as active: 1.33 µM.
In the case of `CCC1C(c2ccccc2)NC(c2ccccc2)CC1(O)c1ccc(F)cc1` (stereo unspecified), the Potency is reported as inconclusive: 29.1 µM [inhibitor, single point].
For `O=[N+]([O-])c1cccc(CN2CCN(Cc3ccc(Br)cc3)CC2)c1`, the Potency was inconclusive: 29.1 µM [inhibitor, single point].
With `c1ccc2c(CCNCc3ccc4c(c3)OCO4)c[nH]c2c1` the Potency was inconclusive: 29.1 µM [inhibitor, single point].
With `CC12Cc3cn[nH]c3C=C1CCC1C2CCC2(C)C1CCC2(C)O` (stereo unspecified) the Potency was inconclusive: 29.1 µM [inhibitor, single point].
For `Cc1ccc(C2=NC(C)(C)N3C2C3c2ccc([N+](=O)[O-])cc2)cc1` (stereo unspecified), the Potency was inconclusive: 29.1 µM [inhibitor, single point].
With `CN1C(=O)C(=Cc2ccc(N3CCOCC3)o2)C(=O)N(C)C1=O` the Potency was “inactive”.
For `COc1ccc(-n2nnnc2C(c2ccccc2OC(F)(F)F)N2CCC(n3c(=O)[nH]c4ccccc43)CC2)cc1` (stereo unspecified), the Potency was active: 20.6 µM.
For `CC1CN(c2ccccn2)C(C)CN1C(=O)C(O)(c1ccccc1)c1ccccc1` (stereo unspecified), the Potency was active: 29.1 µM.
In the case of `O=C(c1cc2c(s1)CCCC2)N1CCC2(CC1)OCCO2`, the Potency is reported as “inactive”.
In the case of `O=C1c2ccccc2-n2nnc(-c3ccccc3)c2C2c3ccccc3CCN12` (stereo unspecified), the Potency is reported as active: 16.4 µM.
With `COc1c(C=C2C(=O)NC(=O)NC2=O)c(CCN(C)C(=O)c2ccccc2)cc2c1OCO2` the Potency was “inactive”.
With `CC(C)CNC(=O)c1c(N)n(Cc2ccco2)c2nc3ccccc3nc12` the Potency was inconclusive: 29.1 µM [inhibitor, single point].
In the case of `CNC(C)C#Cc1ccc2c(=O)c3ccccc3oc2c1` (stereo unspecified), the Potency is reported as inconclusive: 18.4 µM [inhibitor, single point].
With `COc1ccc(C(=O)C2CN(C)CC2c2ccc(Cl)cc2)cc1` (stereo unspecified) the Potency was active: 18.4 µM.
With `CNC(=S)N1CCN(CCN=Cc2c(O)n(-c3ccc(C)cc3)c(=S)[nH]c2=O)CC1` the Potency was “inactive”.
For `O=C(c1ccc(N2CCCCCC2)c([N+](=O)[O-])c1)N1CCC2(CC1)OCCO2`, the Potency was inconclusive: 0.206 µM [inhibitor, full curve].
With `COc1ccc(-c2nc3ccc(Br)cn3c2CC(=O)N2CCCC2)cc1OC` the Potency was “inactive”.
In the case of `CCCCc1nc(N2CCNCC2)c(C#N)c2c1CSC(C)(C)C2`, the Potency is reported as inconclusive: 20.6 µM [inhibitor, single point].
In the case of `Cc1cc(N(CCCl)CCCl)ccc1C=NNC(=O)c1cccnc1`, the Potency is reported as active: 10.3 µM.

Source: PubChem BioAssay AID686979 (National Center for Advancing Translational Sciences (NCATS), 2013)
On the % scale 0 is the no-effect control and ±100 the full control effect; potency means the concentration at half of the fitted maximal effect; tags describe the fitted curve by direction and shape.
